# From the RNAGym collection of RNA variant scans (doi:10.1101/gad.245936.114)
# This sample is rich in variants without activity.
# B1: tRNA (parent)
# chain: CUCUCGGUAGCCAAGUUGGUUUAAGGCGCAAGACUUUAAUUUAUCACUACGAAAUCUUGAGAUCGGGCGUUCGACUCGCCCCCGGGAGAUUUUUUCCUCGAGCAA
# Variants of: B1
# Experiment: nonsense suppression (GFP-seq) (ratio to wild type); higher = more function; SUP4oc tRNA, yeast GFP reporter sort-seq
# Procedure, shortened: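 Nonsense suppression (GFPSEQ) is the median GFP/RFP ratio of each sorting bin, weighted by the variant's estimated share of cells in that bin and expressed relative to the unmutated parent tRNA. Yeast strains carried genome-integrated variants of an ochre-suppressor tRNA from a library with ~3% random mutations, plus a galactose-driven GFP ochre reporter and RFP, and were grown in raffinose/galactose medium containing 80 mg/L adenine. Cells were sorted into GFP/RFP bins, each bin was Illumina-sequenced (phred ≥30), and variants were kept only with ≥100 reads and ≥30 cells.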
row,Variant,nonsense suppression
1,U57G U70A G78U,≤ 0.026
2,U55C U58G,≤ 0.026
3,U55C G86C,0.164
4,U57C A89G,≤ 0.026
5,U57C A89U,≤ 0.026
6,U57C A89C,≤ 0.026
7,U55G C75A G86A,≤ 0.026
8,U58C G73A,0.0472
9,U55G C72G,≤ 0.026
10,U55C G78C,≤ 0.026
11,U55C G78A,≤ 0.026
12,U57A U63A C80U C82A,≤ 0.026
13,C56A U70A G73U,≤ 0.026
14,U55C G66C,≤ 0.026
15,U55G C56A A74U A87U,≤ 0.026
16,C56A U57C,≤ 0.026
17,U58A C80A A87G,≤ 0.026
18,C56U C68U,≤ 0.026
19,C56U U58C G66U,≤ 0.026
20,C56A A74C C81G,≤ 0.026
21,C56G U58A G86U,≤ 0.026
22,C56G G59U,≤ 0.026
23,U55G G85A,≤ 0.026
24,G59U A60U C81A,≤ 0.026

row,Variant,nonsense suppression
1,U58A G61A U71A,≤ 0.026
2,C56A G67U G86C,≤ 0.026
3,G59A G67C,≤ 0.026
4,U58C A60C,0.0568
5,C56A G65C G85U,≤ 0.026
6,U57C A60U,0.0266
7,C56U U58G G86A,≤ 0.026
8,G59C A87C,≤ 0.026
9,U58G A87G,≤ 0.026
10,U58G C81G,≤ 0.026
11,U58G C81U,≤ 0.026
12,U57G C80G C82G,≤ 0.026
13,U55G A62U G66C U76C,≤ 0.026
14,C56U G59C G65U,≤ 0.026
15,C56A U58G G59A U63G,≤ 0.026
16,G59A U76G C77A,≤ 0.026
17,U58A C81A,≤ 0.026
18,C56U U63A C81G G84C A87U,≤ 0.026
19,U55G G69C G73U,≤ 0.026
20,G59A U76A G88U,≤ 0.026
21,U57A G61A,0.0464
22,U57A G61U,≤ 0.026
23,U58G G65A G88A,≤ 0.026
24,G59C C77A,≤ 0.026

row,Variant,nonsense suppression
1,U58A G86A G88C,≤ 0.026
2,U58G C64G G78A G86C,≤ 0.026
3,U57A A74G,≤ 0.026
4,C56U U58C,≤ 0.026
5,U55G G59C C79U C82G,≤ 0.026
6,U55G G67U G86C,≤ 0.026
7,U57A G73U,≤ 0.026
8,U57A C77A A87C,≤ 0.026
9,U57G U58A G65A,≤ 0.026
10,U57C G88C,≤ 0.026
11,U58C G65C,≤ 0.026
12,U57A G67C A87C,≤ 0.026
13,G59C C75A,≤ 0.026
14,C56A C82A,≤ 0.026
15,G59A G73C,≤ 0.026
16,U58C A74U,≤ 0.026
17,U57A G69U U71A,≤ 0.026
18,U57C C68G C75G,≤ 0.026
19,G59A G69A U70C,≤ 0.026
20,U58G G65C,≤ 0.026
21,U58G G65A,≤ 0.026
22,C56U U76C,≤ 0.026
23,G59A C75G C80G,≤ 0.026
24,C56A G65C C81A,≤ 0.026

row,Variant,nonsense suppression
1,U57G A74C G84U,≤ 0.026
2,U57A G88C,≤ 0.026
3,U58A G59A A62G,≤ 0.026
4,C56G U57G A74C,≤ 0.026
5,C56G U58G A60C G66A G88A,≤ 0.026
6,U58G C82G,≤ 0.026
7,U58G G61A C83A,≤ 0.026
8,U57C C75G C79A G88C,≤ 0.026
9,C56A C64U G73A A74U A89U,≤ 0.026
10,U58C A89U,≤ 0.026
11,U58C A89C,≤ 0.026
12,U58C A89G,≤ 0.026
13,U57C C64U U71A U76C,≤ 0.026
14,U58G U63A,≤ 0.026
15,U57C A74U C82A,≤ 0.026
16,C56G G69C U76G,≤ 0.026
17,U55G G59A G73U,≤ 0.026
18,C56U G84A,≤ 0.026
19,C56G C77A,≤ 0.026
20,C56A U76A,≤ 0.026
21,U58G A60U,≤ 0.026
22,G59U A60G G61A A62U,≤ 0.026
23,G59A G73C C82A,≤ 0.026
24,U58G G88C,≤ 0.026

row,Variant,nonsense suppression
1,U55C U57C U63C,≤ 0.026
2,G59A G61A A87C,≤ 0.026
3,U58A G59A U63A G69C U70G,≤ 0.026
4,U58G C68A A74G,≤ 0.026
5,U57A G78A,≤ 0.026
6,C56U U57A A74C,≤ 0.026
7,C56A A74G,≤ 0.026
8,C56G A62C,≤ 0.026
9,U55G U63G U71C G88A,≤ 0.026
10,G59C A62C U71C C82G,≤ 0.026
11,U57C A87C,≤ 0.026
12,G59A A62U C75A,≤ 0.026
13,C56G G69C,≤ 0.026
14,U57A G69A U70A U76C,≤ 0.026
15,C56U G66C U76G C80U,≤ 0.026
16,C56G G61C G88U,≤ 0.026
17,C56A G73A G78A,≤ 0.026
18,U58G G66A,≤ 0.026
19,C56U U58G G59A,≤ 0.026
20,U58G C80A,≤ 0.026
21,U57C G85A,0.757
22,G59A C68A,≤ 0.026
23,U57C G84A,≤ 0.026
24,U57C C82U,≤ 0.026

row,Variant,nonsense suppression
1,U57A G85A G86A,≤ 0.026
2,C56A A87G,≤ 0.026
3,U58A U70C,≤ 0.026
4,C56U A60U U76A,≤ 0.026
5,C56A G65C U71A,≤ 0.026
6,C56A G73A,≤ 0.026
7,C56A G73C,≤ 0.026
8,U58A C64U G65C A89G,≤ 0.026
9,G59A U76A G78A G86C,≤ 0.026
10,G59A G84A G85C,≤ 0.026
11,U57G U71G,≤ 0.026
12,G59C U76G,≤ 0.026
13,U58C G59C G78A,≤ 0.026
14,C56G G78C C79A G85A,≤ 0.026
15,U57G C79U,≤ 0.026
16,U55G G69C,≤ 0.026
17,C56G U58G U71G C77U,≤ 0.026
18,U57G A60U A62U U71A,≤ 0.026
19,U55C G73C U76C,≤ 0.026
20,C56A G61U C83G,≤ 0.026
21,U57A C75A,0.681
22,U57C G86U,≤ 0.026
23,G59C C64G G65U,≤ 0.026
24,G59C C64A G65U U70G G78A C81G A89U,≤ 0.026

row,Variant,nonsense suppression
1,U55C U57C,0.026
2,U55G U58A G88C,≤ 0.026
3,U55C G67C A89G,≤ 0.026
4,U57G C68G,≤ 0.026
5,C56U G61C C82G,≤ 0.026
6,U57C C75A,≤ 0.026
7,U55G G66C,≤ 0.026
8,C56A G59A,≤ 0.026
9,C56G A74G U76C C77A,≤ 0.026
10,U57C G73C,≤ 0.026
11,U57C G73A,0.0414
12,U57G G69C C72A,≤ 0.026
13,G59U A60G G65C C72U G78U,≤ 0.026
14,G59A C64G,≤ 0.026
15,G59A C64A,≤ 0.026
16,C56A G61C U71A C77G,≤ 0.026
17,U55C U58A G67U,≤ 0.026
18,G59A G66C A87U,≤ 0.026
19,U55G C83G,≤ 0.026
20,U57C G69A A74G,≤ 0.026
21,U58G C75A U76G,≤ 0.026
22,U57G C83G,≤ 0.026
23,U57G U70C,≤ 0.026
